Measured values taken from PubChem BioAssay AID2112 (National Center for Advancing Translational Sciences (NCATS), 2009).
Screen size: about 240,000 compounds; about 15 (0.006%) were called active. Inconclusive results, whose numbers are uncertain, are shown with a selection of clear calls. Calls follow the shape of the dose curve; as a rule, active = well fitted inhibition curve with a large enough effect; inconclusive = small, poorly fitted or top-dose-only effect, or effect the other way, or another doubt; inactive = no such curve, though single readings can be large or run the other way. No potency is given beside an inconclusive call; the fits are too rough.

Target: Lysosomal alpha-glucosidase (Homo sapiens) (UniProt P10253)
Experiment: qHTS Assay for Inhibitors and Activators of Human alpha-Glucosidase From Spleen Homogenate;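 as to activity change, negative = inhibition: 0% = enzyme with vehicle and -100% = no enzyme basal signal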
Conditions: 4-MU-alpha-glucoside fluorescence; series mostly up to 79.9 µM
Procedure, shortened: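 Human spleen homogenate (1 ug) incubated with compounds and 1 mM 4-methylumbelliferyl-alpha-D-glucopyranoside in pH 5.0 citrate/phosphate buffer, 37 C, 40 min. Stopped at pH 10; 4-MU fluorescence (Ex 365/Em 440 nm); AC50 by Hill fit.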
Potency is read from the fitted curve at half-maximal effect; tags tell the direction and shape of the fitted curve.

| Compound | Potency | activity change, negative = inhibition |
| --- | --- | --- |
| Nc1c2ccccc2nc2ccccc12 | inconclusive [activator, single point] |  |
| N#Cc1c(N)sc2c1CCCCCC2 | inactive |  |
| CC1(C)Cc2cccc(OCC(O)CN3CCN(c4ccccn4)CC3)c2O1 (stereo not drawn) | inconclusive [inhibitor, single point] |  |
| CC(C)c1ccc(NC(=O)C(=O)c2cn(CC(=O)N3CCCCC3)c3ccccc23)cc1 | inconclusive [inhibitor, partial curve] |  |
| COc1ccc(N=C2C(=O)Nc3ccccc32)cc1 | inactive |  |
| C#CCCCO/N=C1/C[C@@H](O)[C@@H](O)[C@@H]2[C@@H]3C(=O)N(CC)C(=O)[C@H]3CC[C@@H]12 |  | inactive: -3.91% [at 17.4 µM] |
| O=C(O)/C=C/C(=O)Nc1ccc(O)cc1 | inactive |  |
| CC1N(C)c2cccc3cccc(c23)N1C | inactive |  |
| CC1CCC(C(C)C)C(P(=O)(c2ccccc2)c2ccccc2)C1 (stereo not drawn) | inactive |  |
| CCOc1ccccc1-c1nnc2n1N=C(c1ccccc1OC)CS2 | inactive |  |
| O=C(CSc1ncccc1-c1nc2ccccc2[nH]1)N1CCCCC1 | inconclusive [activator, single point] |  |
| CC(=O)N1CCN(c2ccc(NCc3ccc4c(c3)OCO4)cc2)CC1 | inactive |  |
| CC(C)c1cc(NCC2CCCO2)n2c(nc3ccccc32)c1C#N (stereo not drawn) | inconclusive [activator, partial curve] |  |
| O=C(O)c1ccccc1-c1c2cc(Br)c(=O)cc-2oc2[c]([Hg])c(O)c(Br)cc12 | inactive |  |
| COCc1cc(=O)n2c([nH]c3ccccc32)c1C#N | inconclusive [activator, full curve] |  |
| CN1c2ccccc2C(C)(C)C12C=Nc1c(ccc3ccccc13)O2 (stereo not drawn) | inactive |  |
| NC(N)=NC(=O)c1nc(Cl)c(N)nc1N | inconclusive [activator, partial curve] |  |
| COc1ccc(NC(=O)Nc2ccccc2F)cc1 | inactive |  |
| CN(C)S(=O)(=O)c1cccc(-c2cn3cccnc3n2)c1 | inconclusive [activator, partial curve] |  |
| c1cc(CNc2ccc(N3CCOCC3)cc2)ccn1 | inactive |  |
| CN1C(C(=O)NCc2cccc(C(F)(F)F)c2)CC2Cn3c(nc4cc5ccccc5cc43)C21 (stereo not drawn) | inconclusive [activator, single point] |  |
| Cc1ccc(-n2cc(S(=O)(=O)c3ccc(C)cc3)[nH]c2=O)cc1 | inactive |  |
| O=C(CCCn1c(SCC(=O)c2ccc(O)c(O)c2)nc2ccccc2c1=O)NCC1CCCO1 (stereo not drawn) | inactive |  |
| COCCN(CC(=O)NCc1ccccc1)C(=O)CCC(=O)Nc1ccccn1 | inactive |  |

| Compound | Potency | activity change, negative = inhibition |
| --- | --- | --- |
| CCOc1ccc(C2OC34CCCCC3C(C#N)(C#N)C2(C#N)C(=N)O4)cc1OC (stereo not drawn) | inconclusive [activator, single point] |  |
| CC1=CC(=C2C=CC(=O)C=C2)C=C(C)N1C | inconclusive [inhibitor, partial curve] |  |
| CCOC(=O)c1cnc2ccc(C)cn2c1=O | inconclusive [activator, single point] |  |
| Cc1nonc1NC(=O)CSc1nnc(-c2ccoc2C)n1-c1cccc(Cl)c1 | inconclusive [inhibitor, full curve, poor fit] |  |
| COCCn1c(N)c(C#N)c2nc3ccccc3nc21 | inconclusive [activator, partial curve] |  |
| O=C(C1=C[C@@H](c2ccc(C(F)(F)F)cc2)C[C@@H](OCc2ccc(CO)cc2)O1)N1CCN(Cc2ccc3c(c2)OCO3)CC1 | inactive |  |
| Cc1cc(=O)oc2c(CN3CCN(C)CC3)c(O)c(Cl)cc12 | inconclusive [activator, partial curve] |  |
| Cn1c(N)c(C(=O)COC(=O)C2CCN(S(=O)(=O)c3cccs3)CC2)c(=O)n(C)c1=O | inconclusive [inhibitor, single point] |  |
| COc1cc(OC)c(NC(=O)CCNC(=O)Cn2ccc3ccccc3c2=O)cc1Cl | inconclusive [inhibitor, partial curve, poor fit] |  |
| CC(=O)Nc1ccc(Nc2nc(-c3ccccc3)nc3ccccc23)cc1 | inactive |  |
| CCCCC[n+]1cccc2c3ccccc3ccc21 | inconclusive [activator, partial curve] |  |
| Cc1cc(C(=O)CS(=O)(=O)c2ccc(F)cc2)cc(C)c1OC(=O)N(C)C | inconclusive [inhibitor, single point] |  |
| N#Cc1c(Cl)cccc1N1CCCC1 | inactive |  |
| Cc1cccc(-c2cc(C(=O)Nc3ccc4c(c3)OCCO4)c3ccccc3n2)c1 | inactive |  |
| O=[N+]([O-])c1cc(/C=N/Nc2nc(N3CCCCC3)nc(N3CCCCC3)n2)ccc1O | inactive |  |
| CC1CC=CC2C1C(=O)N(Cc1ccccc1)C2c1cccc([N+](=O)[O-])c1 (stereo not drawn) | inactive |  |
| C=C1C2CC[C@]3(CCC4[C@@]5(C)CCC[C@@]4(CN(CCO)C5)[C@@H]3C2)[C@@H]1O (stereo partly drawn) | inactive |  |
| O=S(=O)(c1ccc2ccccc2c1)N1CCN=C1SCc1cccnc1 | inactive |  |
| CCCc1cc(NCCCN2CCOCC2)n2c(nc3ccccc32)c1C#N | inconclusive [activator, single point] |  |
| CCCCN(CC)CCNC(=O)CCC(=O)Nc1ccc2nc(N3CCN(C)CC3)cc(C)c2c1 | inconclusive [activator, partial curve] |  |
| CCCOc1ccc(N2C(=O)CC(N(CCC)C(=O)CCC(=O)O)C2=O)cc1 (stereo not drawn) | inconclusive [inhibitor, partial curve, poor fit] |  |
| CCN(CC)CCNC(=O)CCn1c(=S)[nH]c2cc3c(cc2c1=O)OCO3 | inconclusive [inhibitor, single point] |  |
| Cc1ccc(C2CC(c3ccccc3)=NN2c2ccccc2)o1 (stereo not drawn) | inconclusive [activator, partial curve] |  |
| O=c1ccc2ccc(OS(=O)(=O)O)cc2o1 | inconclusive [activator, partial curve] |  |
